{"source": "the supplement of paper PMC8728848", "binders": {"B1": {"name": "PRKCE (Homo sapiens), Q02156 (protein)", "chain": "MVVFNGLLKIKICEAVSLKPTAWSLRHAVGPRPQTFLLDPYIALNVDDSRIGQTATKQKTNSPAWHDEFVTDVCNGRKIELAVFHDAPIGYDDFVANCTIQFEELLQNGSRHFEDWIDLEPEGRVYVIIDLSGSSGEAPKDNEERVFRERMRPRKRQGAVRRRVHQVNGHKFMATYLRQPTYCSHCRDFIWGVIGKQGYQCQVCTCVVHKRCHELIITKCAGLKKQETPDQVGSQRFSVNMPHKFGIHNYKVPTFCDHCGSLLWGLLRQGLQCKVCKMNVHRRCETNVAPNCGVDARGIAKVLADLGVTPDKITNSGQRRKKLIAGAESPQPASGSSPSEEDRSKSAPTSPCDQEIKELENNIRKALSFDNRGEEHRAASSPDGQLMSPGENGEVRQGQAKRLGLDEFNFIKVLGKGSFGKVMLAELKGKDEVYAVKVLKKDVILQDDDVDCTMTEKRILALARKHPYLTQLYCCFQTKDRLFFVMEYVNGGDLMFQIQRSRKFDEPRSRFYAAEVTSALMFLHQHGVIYRDLKLDNILLDAEGHCKLADFGMCKEGILNGVTTTTFCGTPDYIAPEILQELEYGPSVDWWALGVLMYEMMAGQPPFEADNEDDLFESILHDDVLYPVWLSKEAVSILKAFMTKNPHKRLGCVASQNGEDAIKQHPFFKEIDWVLLEQKKIKPPFKPRIKTKRDVNNFDQDFTREEPVLTLVDEAIVKQINQEEFKGFSYFGEDLMP"}}, "assay_in_all_cases": "glycan array binding signal (z-score within array); higher = stronger binding", "details_in_all_cases": "glycan notation: IUPAC condensed, linker removed", "key": {"[1]": {"target": "Fuc(a1-2)Gal(b1-4)GlcNAc(b1-3)Gal(b1-4)GlcNAc(b1-3)Gal(b1-4)GlcNAc", "method_in_brief": "(§1)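 Columns mapping to the same glycan were averaged after glycan names were converted to IUPAC-condensed notation. The data come from 3228 arrays in the Consortium for Functional Glycomics database, limited to those with an available protein sequence. Binding is reported as a within-array Z-score averaged across arrays of one protein sequence and across linkers.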"}, "[2]": {"target": "Fuc(a1-2)Gal(b1-4)GlcNAc(b1-3)GalNAc", "method_in_brief": "as §1"}, "[3]": {"target": "Fuc(a1-2)Gal(b1-4)GlcNAc(b1-3)[Fuc(a1-2)Gal(b1-4)GlcNAc(b1-6)]GalNAc", "method_in_brief": "as §1"}, "[4]": {"target": "Fuc(a1-2)Gal(b1-4)GlcNAc(b1-6)GalNAc", "method_in_brief": "as §1"}, "[5]": {"target": "Fuc(a1-2)Gal(b1-4)GlcNAc6S", "method_in_brief": "as §1"}, "[6]": {"target": "Fuc(a1-2)Gal(b1-4)[Fuc(a1-3)]GlcNAc", "method_in_brief": "as §1"}, "[7]": {"target": "Fuc(a1-2)Gal(b1-4)[Fuc(a1-3)]GlcNAc(b1-2)Man(a1-3)[Fuc(a1-2)Gal(b1-4)[Fuc(a1-3)]GlcNAc(b1-2)Man(a1-6)]Man(b1-4)GlcNAc(b1-4)GlcNAc", "method_in_brief": "as §1"}, "[8]": {"target": "Fuc(a1-2)Gal(b1-4)[Fuc(a1-3)]GlcNAc(b1-2)Man(a1-6)[Fuc(a1-2)Gal(b1-4)[Fuc(a1-3)]GlcNAc(b1-2)Man(a1-3)]Man(b1-4)GlcNAc(b1-4)[Fuc(a1-6)]GlcNAc", "method_in_brief": "as §1"}, "[9]": {"target": "Fuc(a1-2)Gal(b1-4)[Fuc(a1-3)]GlcNAc(b1-2)[Fuc(a1-2)Gal(b1-4)[Fuc(a1-3)]GlcNAc(b1-4)]Man(a1-3)[Fuc(a1-2)Gal(b1-4)[Fuc(a1-3)]GlcNAc(b1-2)Man(a1-6)]Man(b1-4)GlcNAc(b1-4)GlcNAc", "method_in_brief": "as §1"}, "[10]": {"target": "Fuc(a1-2)Gal(b1-4)[Fuc(a1-3)]GlcNAc(b1-3)Gal(b1-4)[Fuc(a1-3)]GlcNAc", "method_in_brief": "as §1"}, "[11]": {"target": "Fuc(a1-2)Gal(b1-4)[Fuc(a1-3)]GlcNAc(b1-3)Gal(b1-4)[Fuc(a1-3)]GlcNAc(b1-3)Gal(b1-4)[Fuc(a1-3)]GlcNAc", "method_in_brief": "as §1"}, "[12]": {"target": "Fuc(a1-2)Gal(b1-4)[Fuc(a1-3)]GlcNAc(b1-3)GalNAc", "method_in_brief": "as §1"}, "[13]": {"target": "Fuc(a1-2)Gal(b1-4)[Fuc(a1-3)]GlcNAc(b1-3)[Neu5Ac(a2-6)Gal(b1-4)GlcNAc(b1-6)]Gal(b1-4)Glc", "method_in_brief": "as §1"}, "[14]": {"target": "Fuc(a1-2)Gal6S(b1-3)GlcNAc", "method_in_brief": "as §1"}, "[15]": {"target": "Fuc(a1-2)Gal6S(b1-3)GlcNAc6S", "method_in_brief": "as §1"}, "Fuc(a1-2)Gal6S(b1-4)Glc": {"target": "Fuc(a1-2)Gal6S(b1-4)Glc", "method_in_brief": "as §1"}, "[16]": {"target": "Fuc(a1-2)Gal6S(b1-4)Glc6S", "method_in_brief": "as §1"}, "[17]": {"target": "Fuc(a1-2)Gal6S(b1-4)GlcNAc", "method_in_brief": "as §1"}, "Fuc(a1-2)[Gal(a1-3)]Gal": {"target": "Fuc(a1-2)[Gal(a1-3)]Gal", "method_in_brief": "as §1"}, "[18]": {"target": "Fuc(a1-2)[Gal(a1-3)]Gal(b1-3)GalNAc", "method_in_brief": "as §1"}, "[19]": {"target": "Fuc(a1-2)[Gal(a1-3)]Gal(b1-3)GlcNAc", "method_in_brief": "as §1"}, "[20]": {"target": "Fuc(a1-2)[Gal(a1-3)]Gal(b1-3)GlcNAc(b1-2)Man(a1-3)[Fuc(a1-2)[Gal(a1-3)]Gal(b1-3)GlcNAc(b1-2)Man(a1-6)]Man(b1-4)GlcNAc(b1-4)GlcNAc", "method_in_brief": "as §1"}, "[21]": {"target": "Fuc(a1-2)[Gal(a1-3)]Gal(b1-3)GlcNAc(b1-2)Man(a1-3)[Fuc(a1-2)[Gal(a1-3)]Gal(b1-3)GlcNAc(b1-2)Man(a1-6)]Man(b1-4)GlcNAc(b1-4)[Fuc(a1-6)]GlcNAc", "method_in_brief": "as §1"}, "[22]": {"target": "Fuc(a1-2)[Gal(a1-3)]Gal(b1-3)GlcNAc(b1-3)GalNAc", "method_in_brief": "as §1"}, "[23]": {"target": "Fuc(a1-2)[Gal(a1-3)]Gal(b1-4)Glc", "method_in_brief": "as §1"}, "[24]": {"target": "Fuc(a1-2)[Gal(a1-3)]Gal(b1-4)GlcNAc", "method_in_brief": "as §1"}, "[25]": {"target": "Fuc(a1-2)[Gal(a1-3)]Gal(b1-4)GlcNAc(b1-2)Man(a1-3)[Fuc(a1-2)[Gal(a1-3)]Gal(b1-4)GlcNAc(b1-2)Man(a1-6)]Man(b1-4)GlcNAc(b1-4)GlcNAc", "method_in_brief": "as §1"}, "[26]": {"target": "Fuc(a1-2)[Gal(a1-3)]Gal(b1-4)GlcNAc(b1-2)Man(a1-3)[Fuc(a1-2)[Gal(a1-3)]Gal(b1-4)GlcNAc(b1-2)Man(a1-6)]Man(b1-4)GlcNAc(b1-4)[Fuc(a1-6)]GlcNAc", "method_in_brief": "as §1"}, "[27]": {"target": "Fuc(a1-2)[Gal(a1-3)]Gal(b1-4)GlcNAc(b1-3)GalNAc", "method_in_brief": "as §1"}, "[28]": {"target": "Fuc(a1-2)[Gal(a1-3)]Gal(b1-4)GlcNAc(b1-6)GalNAc", "method_in_brief": "as §1"}}, "note": "Some of the results follow."}
{"binder": "B1", "values": [{"measurement": "glycan array binding signal (z-score)", "setting": "[1]", "value": -0.376}, {"measurement": "glycan array binding signal (z-score)", "setting": "[2]", "value": -0.238}, {"measurement": "glycan array binding signal (z-score)", "setting": "[3]", "value": -0.259}, {"measurement": "glycan array binding signal (z-score)", "setting": "[4]", "value": 0.117}, {"measurement": "glycan array binding signal (z-score)", "setting": "[5]", "value": 0.411}, {"measurement": "glycan array binding signal (z-score)", "setting": "[6]", "value": -0.358}, {"measurement": "glycan array binding signal (z-score)", "setting": "[7]", "value": -0.153}, {"measurement": "glycan array binding signal (z-score)", "setting": "[8]", "value": 0.364}, {"measurement": "glycan array binding signal (z-score)", "setting": "[9]", "value": 0.125}, {"measurement": "glycan array binding signal (z-score)", "setting": "[10]", "value": -0.311}, {"measurement": "glycan array binding signal (z-score)", "setting": "[11]", "value": -0.355}, {"measurement": "glycan array binding signal (z-score)", "setting": "[12]", "value": -0.231}, {"measurement": "glycan array binding signal (z-score)", "setting": "[13]", "value": -0.275}, {"measurement": "glycan array binding signal (z-score)", "setting": "[14]", "value": -0.237}, {"measurement": "glycan array binding signal (z-score)", "setting": "[15]", "value": 0.147}, {"measurement": "glycan array binding signal (z-score)", "setting": "Fuc(a1-2)Gal6S(b1-4)Glc", "value": -0.311}, {"measurement": "glycan array binding signal (z-score)", "setting": "[16]", "value": 3.89}, {"measurement": "glycan array binding signal (z-score)", "setting": "[17]", "value": 1.09}, {"measurement": "glycan array binding signal (z-score)", "setting": "Fuc(a1-2)[Gal(a1-3)]Gal", "value": -0.206}, {"measurement": "glycan array binding signal (z-score)", "setting": "[18]", "value": -0.057}, {"measurement": "glycan array binding signal (z-score)", "setting": "[19]", "value": -0.168}, {"measurement": "glycan array binding signal (z-score)", "setting": "[20]", "value": -0.251}, {"measurement": "glycan array binding signal (z-score)", "setting": "[21]", "value": -0.434}, {"measurement": "glycan array binding signal (z-score)", "setting": "[22]", "value": 0.498}, {"measurement": "glycan array binding signal (z-score)", "setting": "[23]", "value": 0.142}, {"measurement": "glycan array binding signal (z-score)", "setting": "[24]", "value": -0.369}, {"measurement": "glycan array binding signal (z-score)", "setting": "[25]", "value": -0.355}, {"measurement": "glycan array binding signal (z-score)", "setting": "[26]", "value": -0.34}, {"measurement": "glycan array binding signal (z-score)", "setting": "[27]", "value": -0.348}, {"measurement": "glycan array binding signal (z-score)", "setting": "[28]", "value": 4.32}]}
